Reference: PubChem BioAssay AID504339 (National Center for Advancing Translational Sciences (NCATS), 2011)
About 17,000 (4.4%) of roughly 390,000 compounds were called active. This list was built around the results that the source calls inconclusive (neither active nor inactive); the mix of calls is not that of the screen. Calls follow the shape of the dose curve; as a rule, active = well fitted inhibition curve with a large enough effect; inconclusive = small, poorly fitted or top-dose-only effect; inactive = no such curve, though single readings can be large or run the other way. Where the call is inconclusive, the potency comes from a doubtful curve fit.

target: Lysine-specific demethylase 4A (Homo sapiens) (UniProt O75164); test: qHTS Assay for Inhibitors of JMJD2A-Tudor Domain; settings: AlphaScreen JMJD2A-Tudor / H3K4me3 peptide binding; activity change, negative = inhibition: at 114 µM (top of the series); also: nearly all actives have a fitted effect of over 50% in size
Chain of UniProt O75164 (O75164 whole entry, looked up, the tested form may be a part): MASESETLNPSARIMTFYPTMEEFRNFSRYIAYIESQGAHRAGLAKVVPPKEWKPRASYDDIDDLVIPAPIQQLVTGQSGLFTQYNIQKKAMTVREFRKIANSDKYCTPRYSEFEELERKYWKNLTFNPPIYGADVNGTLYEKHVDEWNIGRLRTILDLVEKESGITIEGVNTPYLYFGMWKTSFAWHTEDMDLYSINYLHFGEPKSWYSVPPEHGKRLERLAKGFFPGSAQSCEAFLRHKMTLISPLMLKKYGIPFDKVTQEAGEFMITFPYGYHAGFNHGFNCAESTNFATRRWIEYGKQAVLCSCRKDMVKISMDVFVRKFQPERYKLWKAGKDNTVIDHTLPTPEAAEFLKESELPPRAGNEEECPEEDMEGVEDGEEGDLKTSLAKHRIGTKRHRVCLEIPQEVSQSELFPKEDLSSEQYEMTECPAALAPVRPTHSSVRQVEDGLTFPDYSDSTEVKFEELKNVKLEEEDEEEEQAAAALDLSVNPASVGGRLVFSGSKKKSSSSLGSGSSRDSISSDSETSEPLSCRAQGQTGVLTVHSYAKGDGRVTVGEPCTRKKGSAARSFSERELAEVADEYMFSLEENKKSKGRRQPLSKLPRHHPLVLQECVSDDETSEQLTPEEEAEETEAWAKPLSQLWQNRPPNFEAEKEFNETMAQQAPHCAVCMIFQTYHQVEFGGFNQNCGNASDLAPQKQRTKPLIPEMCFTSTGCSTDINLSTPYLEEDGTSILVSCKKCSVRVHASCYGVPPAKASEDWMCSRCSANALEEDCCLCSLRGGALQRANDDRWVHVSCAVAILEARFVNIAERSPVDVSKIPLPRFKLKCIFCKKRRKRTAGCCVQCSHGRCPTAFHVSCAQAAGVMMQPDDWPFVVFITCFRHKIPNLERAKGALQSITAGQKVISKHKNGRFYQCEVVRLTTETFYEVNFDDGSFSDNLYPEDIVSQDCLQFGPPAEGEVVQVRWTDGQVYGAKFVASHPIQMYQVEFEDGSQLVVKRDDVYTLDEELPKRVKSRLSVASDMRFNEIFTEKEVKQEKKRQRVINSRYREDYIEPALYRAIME
% is scaled to controls: 0 for no effect and ±100 for the full control effect; potency is read from the fitted curve at half-maximal effect; tags tell the direction and shape of the fitted curve.

SMILES	activity change, negative = inhibition	Potency
Cc1ccc(S(=O)(=O)N2CCN(C(=O)c3cc4c(s3)CCCC4)CC2)cc1	inactive: -5.5%	
CCOc1ccc(OCCCC(=O)N2CCN(S(=O)(=O)c3ccc(Cl)cc3)CC2)cc1		active: 17.8 µM
O=C(c1ccco1)N1CCN(C(c2ccc(Cl)cc2)c2nnnn2CC2CCCO2)CC1 (stereo not given)		active: 79.4 µM
CCCc1nc2ccccc2n2c(-c3ccc(C)cc3)c3c(=O)n(C)c(=O)n(C)c3c12	inactive: 10.3%	
COc1ccccc1N1CCN(C(=O)COc2cc(C)cc3oc(=O)cc(C)c23)CC1		inconclusive: 28.2 µM [inhibitor, full curve]
Cc1c2ccncc2cc2c1[nH]c1ccccc12	inactive: 12.4%	
Cc1cccc(C(=O)NC(=S)Nc2ccccc2C(F)(F)F)c1		inconclusive: 63.1 µM [inhibitor, single point]
Fc1ccc(C2Nc3cccc4cccc(c34)N2)cc1		inconclusive: 39.8 µM [inhibitor, partial curve]
Cc1cccc(N2CCN(C(=O)c3cnn(-c4cccc(Cl)c4C)c3C3CCNCC3)CC2)c1C		inconclusive: 79.4 µM [inhibitor, partial curve]
CCn1ccnc1CN(C)Cc1cn(-c2ccc(C)cc2)nc1-c1ccc(F)cc1		inconclusive: 50.1 µM [inhibitor, partial curve]
CCOc1ccc(NS(=O)(=O)c2ccc3[nH]c(=O)c(=O)[nH]c3c2)cc1		inconclusive: 5.01 µM [inhibitor, single point]
C=CCOc1ccccc1CN1CCCC(CCC(=O)N(C)CCc2ccccn2)C1 (stereo not given)	inactive: -25.2%	
O=C1CSC(=S)N1N=Cc1cccc2ccccc12		inconclusive: 56.2 µM [inhibitor, partial curve]
CCOc1ccc(-n2c(O)c(/C=N/Nc3nnc(C)c(=O)[nH]3)c3ccccc3c2=O)cc1		active: 28.2 µM
COC(=O)CCc1sc(Nc2ccccc2)nc1-c1ccc(OC)cc1		inconclusive: 35.5 µM [inhibitor, partial curve]
CC1(C)c2[nH]c3ccccc3c2C[C@H]2C(=O)N(Cc3ccccc3)C(=O)N21		inconclusive: 79.4 µM [inhibitor, partial curve]
CCOC(=O)c1c(NC(=O)CSc2nc3ccc(OC)cc3[nH]2)sc2c1CC(C)(C)NC2(C)C		inconclusive: 39.8 µM [inhibitor, partial curve, poor fit]
COc1ccc(NS(=O)(=O)c2ccc3c(c2)CCC(=O)N3)cc1	inactive: -12.9%	
CSc1ncccc1-c1nc2ccccc2[nH]1	inactive: -8.66% [at 57.1 µM]	
COc1cc(/C=N/Nc2cc(C)nc(N)n2)ccc1O	inactive: -7.46%	
